Results as given in PubChem BioAssay.
Inconclusive results, whose numbers are uncertain, are shown with a selection of clear calls. Activity calls are given as the source filed them.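 The calls were made as follows, unless noted: active = thallium flux slope above the same plate's solvent-only control mean plus 3 SD; inconclusive = the two replicate wells disagree; inactive = no significant difference from solvent-only control wells.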

How the values were obtained:
[1] = target: Solute carrier family 12 member 5 (Homo sapiens) (UniProt Q9H2X9); test: modulation of KCC2 thallium flux in HEK cells – cell-based, ouabain, retest, confirmation (AID 1717;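 active = thallium flux slope beyond 3 SD from same-plate DMSO control mean in most replicates, usually higher, sometimes lower; inconclusive = repeat tests gave conflicting results; inactive = no significant difference from controls in most replicates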;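 also: slope of initial-normalized fluorescence between seconds 10 and 20 after thallium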); details: HEK293-KCC2, thallium flux FluoZin2 fluorescence, at 10 µM, bidirectional: low = inhibitor, high = activator
Sequence of UniProt Q9H2X9 (Q9H2X9 whole entry, looked up): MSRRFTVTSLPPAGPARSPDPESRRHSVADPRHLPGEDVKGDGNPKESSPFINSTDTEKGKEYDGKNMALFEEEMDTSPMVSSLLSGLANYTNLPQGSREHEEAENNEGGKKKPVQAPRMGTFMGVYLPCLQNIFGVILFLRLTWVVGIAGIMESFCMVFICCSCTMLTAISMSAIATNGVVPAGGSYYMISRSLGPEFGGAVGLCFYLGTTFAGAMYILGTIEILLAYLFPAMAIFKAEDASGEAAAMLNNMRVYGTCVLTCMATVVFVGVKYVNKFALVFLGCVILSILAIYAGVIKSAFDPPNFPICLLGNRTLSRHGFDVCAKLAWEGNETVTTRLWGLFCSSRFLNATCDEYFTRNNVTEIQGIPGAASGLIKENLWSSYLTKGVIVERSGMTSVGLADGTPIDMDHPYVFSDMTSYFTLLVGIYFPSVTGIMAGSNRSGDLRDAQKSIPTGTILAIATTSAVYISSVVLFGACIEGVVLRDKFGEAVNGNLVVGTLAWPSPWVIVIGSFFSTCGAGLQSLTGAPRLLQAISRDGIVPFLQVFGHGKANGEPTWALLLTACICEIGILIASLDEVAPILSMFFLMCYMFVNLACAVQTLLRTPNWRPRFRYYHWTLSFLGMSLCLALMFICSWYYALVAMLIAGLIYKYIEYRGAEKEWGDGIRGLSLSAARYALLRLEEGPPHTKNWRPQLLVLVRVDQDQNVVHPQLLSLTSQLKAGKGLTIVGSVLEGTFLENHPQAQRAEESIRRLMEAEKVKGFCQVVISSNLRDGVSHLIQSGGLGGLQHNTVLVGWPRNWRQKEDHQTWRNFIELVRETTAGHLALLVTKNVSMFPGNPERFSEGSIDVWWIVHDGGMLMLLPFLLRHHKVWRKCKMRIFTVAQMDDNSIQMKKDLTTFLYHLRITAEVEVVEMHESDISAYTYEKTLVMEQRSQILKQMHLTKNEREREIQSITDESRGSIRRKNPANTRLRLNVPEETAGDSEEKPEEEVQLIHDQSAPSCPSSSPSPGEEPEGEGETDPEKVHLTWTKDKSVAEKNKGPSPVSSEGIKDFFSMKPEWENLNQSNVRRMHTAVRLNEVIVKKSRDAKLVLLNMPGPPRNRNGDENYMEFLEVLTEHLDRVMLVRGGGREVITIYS

[2] = target: Solute carrier family 12 member 5 (Homo sapiens) (UniProt Q9H2X9); test: retest of KCC2 transport modulators without sodium – cell-based, HEK293 KCC2, thallium flux, secondary assay, confirmation (AID 1713); details: FluoZin2 fluorescence, at 10 µM, active compounds read high
Procedure, shortened: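 System: HEK/KCC2 cells | Compound: 10 µM single dose, 0.1% DMSO | Repeats: Two replicates | Benchmarks: Bumetanide 2 mM positive, DMSO negative | Times: Dye loading 48 min | Signal: FluoZin2 fluorescence, 480/540 nm, 1 Hz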

[3] = target: Solute carrier family 12 member 5 (Homo sapiens) (UniProt Q9H2X9); test: retest of KCC2 transport modulation, ouabain-free – cell-based, HEK293 KCC2, thallium flux, FluoZin2, secondary assay 2, confirmation (AID 1715;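 active = thallium flux slope more than 3 SD above or below the plate's solvent-only control mean, mostly below; inconclusive = the two repeat wells disagreed; inactive = no significant shift from solvent-only controls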;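 also: raw slope with 0.1% DMSO as baseline and bumetanide as block control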); details: HEK293-KCC2, thallium flux FluoZin2 fluorescence; at 10 µM; actives lie on both sides; F/F0 rise rate, 10–20 s post-thallium
[4] = compound effects on native HEK Tl+ uptake – HEK cells, counterscreen 1, counter-screen for KCC2 modulator project, confirmation (AID 1716;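 active = thallium flux rate significantly above the same plate's solvent-only control wells, beyond their mean plus 3 SD; inconclusive = the two replicate wells gave conflicting results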); details: HEK293 parental cells, thallium flux FluoZin2, ouabain; at 10 µM; baseline-ratio fluorescence slope, 10–20 s after thallium
[5] = native HEK Tl+ uptake effects, second counter-screen – HEK cells, counterscreen 2, counter-screen for KCC2 modulator project, confirmation (AID 1718;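 active = thallium flux slope above the same plate's solvent-control mean plus 3 SD in both duplicate wells; inconclusive = duplicate wells that disagreed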;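 also: run without ouabain in cells lacking the KCC2 cotransporter; slope of fluorescence scaled to its starting value between 10 and 20 s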); details: HEK293 parental, thallium flux FluoZin-2 fluorescence slope; at 10 µM
Procedure, shortened: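 Assay system – untransfected HEK cells, thallium influx assay · Buffer or medium – HBSS with 20 mM HEPES for dye loading · Doses – single 10 µM final compound dose, 0.1% DMSO · Times – 37 °C overnight growth, 48 min FluoZin2-AM loading · Detection – FluoZin-2 fluorescence kinetics · Benchmarks – bumetanide 2 mM as positive control · Repeats – Per-replicate slope values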

CCC1=NN2C(=N)/C(=C\c3cccn3-c3ccc(Cl)cc3)C(=O)N=C2S1
raw Tl+ flux slope (below DMSO = inhibition, above = activation) [1]: inactive: 0.0271

COc1ccccc1-c1nc(C#N)c(N2CCC(Cc3ccccc3)CC2)o1
normalised thallium flux (F/F0 slope) [2]: inactive: 0.00917 | normalized thallium flux [3]: inconclusive: 0.0296 | thallium flux rate (normalised fluorescence) [4]: inactive: 0.0083 | raw Tl+ flux slope (below DMSO = inhibition, above = activation) [1]: active: 0.0191

Cc1ccc2nc(NC(=O)c3ccccn3)sc2c1
normalised thallium flux (F/F0 slope) [2]: inconclusive: 0.0107 | normalized thallium flux [3]: inactive: 0.0319 | thallium flux rate (normalised fluorescence) [4]: active: 0.0175

O=C(NCc1ccc(Cl)cc1)c1n[nH]c([N+](=O)[O-])c1Cl
normalised thallium flux (F/F0 slope) [2]: inactive: 0.00735 | normalized thallium flux [3]: inconclusive: 0.0246 | thallium flux rate (normalised fluorescence) [4]: inconclusive: 0.00809

CC(C)(C)C(=O)NC(=S)N1CCc2ccccc21
normalised thallium flux (F/F0 slope) [2]: active: 0.0236 | normalized thallium flux [3]: active: 0.052 | thallium flux rate (normalised fluorescence) [4]: inconclusive: 0.0442

Cc1[nH]n2c(=O)cc(C(C)C)nc2c1-c1ccccc1
normalised thallium flux (F/F0 slope) [2]: inconclusive: 0.0121 | normalized thallium flux [3]: inconclusive: 0.0312 | thallium flux rate (normalised fluorescence) [4]: inconclusive: 0.0072 | raw Tl+ flux slope (below DMSO = inhibition, above = activation) [1]: inconclusive: 0.0229

O=C(NC(=S)Nc1ccccn1)c1cccc([N+](=O)[O-])c1
normalised thallium flux (F/F0 slope) [2]: inconclusive: 0.0135 | normalized thallium flux [3]: inactive: 0.0349 | thallium flux rate (normalised fluorescence) [4]: active: 0.0138 | raw Tl+ flux slope (below DMSO = inhibition, above = activation) [1]: inactive: 0.0261

Cc1ccc(S(=O)(=O)N2CC(O)CC2C(=O)OCC(=O)c2ccccc2Cl)cc1C (configuration not stated)
normalised thallium flux (F/F0 slope) [2]: inconclusive: 0.00584 | normalized thallium flux [3]: inactive: 0.0349 | thallium flux rate (normalised fluorescence) [4]: inactive: 0.00386 | raw Tl+ flux slope (below DMSO = inhibition, above = activation) [1]: active: 0.0155

C=CCn1c(SCc2ccc(C(=O)O)cc2)nc2sc(C)c(C)c2c1=O
normalised thallium flux (F/F0 slope) [2]: active: 0.0212 | normalized thallium flux [3]: inconclusive: 0.0402 | thallium flux rate (normalised fluorescence) [4]: active: 0.0348

O=C(N/N=C/c1ccccn1)c1cc(-c2ccc(Cl)cc2)nc2ccccc12
normalised thallium flux (F/F0 slope) [2]: inconclusive: 0.0123 | normalized thallium flux [3]: inactive: 0.0328 | thallium flux rate (normalised fluorescence) [4]: active: 0.0177 | raw Tl+ flux slope (below DMSO = inhibition, above = activation) [1]: inactive: 0.0268 | thallium flux slope [5]: inconclusive: 0.0109

COc1ccc(O)c(C(=O)CC(=O)c2ccc(F)cc2)c1
normalised thallium flux (F/F0 slope) [2]: inconclusive: 0.0127 | normalized thallium flux [3]: inactive: 0.0353 | thallium flux rate (normalised fluorescence) [4]: inconclusive: 0.0372 | raw Tl+ flux slope (below DMSO = inhibition, above = activation) [1]: active: 0.0543 | thallium flux slope [5]: inconclusive: 0.0155

C=CCn1c(O)c(N=NC(=S)Nc2ccccc2F)c2ccccc21
normalised thallium flux (F/F0 slope) [2]: active: 0.0364 | normalized thallium flux [3]: active: 0.0503 | thallium flux rate (normalised fluorescence) [4]: inconclusive: 0.0454 | raw Tl+ flux slope (below DMSO = inhibition, above = activation) [1]: active: 0.0888

CCC(Cc1ccccc1)NC(=O)CN(C)S(=O)(=O)c1ccc2c(c1)c(=O)n(C)c(=O)n2C (configuration not stated)
normalised thallium flux (F/F0 slope) [2]: inactive: 0.00676 | normalized thallium flux [3]: active: 0.0238 | thallium flux rate (normalised fluorescence) [4]: inactive: 0.00822 | raw Tl+ flux slope (below DMSO = inhibition, above = activation) [1]: inconclusive: 0.0179

COc1cccc(Cn2cnc3c(NS(=O)(=O)c4cc(Cl)ccc4Cl)c(C)c(C)cc32)c1
normalised thallium flux (F/F0 slope) [2]: inactive: 0.00911 | normalized thallium flux [3]: inactive: 0.0307 | thallium flux rate (normalised fluorescence) [4]: inconclusive: 0.00806 | raw Tl+ flux slope (below DMSO = inhibition, above = activation) [1]: inactive: 0.0259 | thallium flux slope [5]: inconclusive: 0.0103

O=C(c1cc(COc2c(F)cccc2F)on1)N1CCC(c2ccncc2)CC1
normalised thallium flux (F/F0 slope) [2]: inconclusive: 0.0112 | normalized thallium flux [3]: inconclusive: 0.0292 | thallium flux rate (normalised fluorescence) [4]: inactive: 0.00722

Cc1cccc(C)c1Nc1nnc(SCC(=O)Nc2ncc(C(F)(F)F)cc2Cl)s1
normalised thallium flux (F/F0 slope) [2]: active: 0.00568 | normalized thallium flux [3]: active: 0.0248 | thallium flux rate (normalised fluorescence) [4]: inconclusive: 0.00588

CCOCc1[nH]c(=S)[nH]c(=O)c1Cc1ccc(OCC(C)C)cc1
normalised thallium flux (F/F0 slope) [2]: active: 0.0138 | normalized thallium flux [3]: inactive: 0.0389 | thallium flux rate (normalised fluorescence) [4]: inconclusive: 0.023 | thallium flux slope [5]: inconclusive: 0.0149

Cc1snnc1C(=O)NC(=S)Nc1ccccc1
normalised thallium flux (F/F0 slope) [2]: active: 0.0265 | normalized thallium flux [3]: inconclusive: 0.0374 | thallium flux rate (normalised fluorescence) [4]: active: 0.0467

CCCCC(=O)NC(=S)NNC(=O)c1ccc(OC)cc1
normalised thallium flux (F/F0 slope) [2]: active: 0.0208 | normalized thallium flux [3]: inactive: 0.0354 | thallium flux rate (normalised fluorescence) [4]: inconclusive: 0.0171 | raw Tl+ flux slope (below DMSO = inhibition, above = activation) [1]: active: 0.0389 | thallium flux slope [5]: inconclusive: 0.0132

Cc1ccc(C(=O)CSc2ncnc3sc4c(c23)CCC(C)C4)cc1 (configuration not stated)
normalised thallium flux (F/F0 slope) [2]: inconclusive: 0.0127 | normalized thallium flux [3]: inactive: 0.0365 | thallium flux rate (normalised fluorescence) [4]: inconclusive: 0.0103 | raw Tl+ flux slope (below DMSO = inhibition, above = activation) [1]: inconclusive: 0.0324 | thallium flux slope [5]: inactive: 0.0122

O=C(NC(=S)Nc1ccc(N2CCOCC2)c(Cl)c1)c1cccs1
normalised thallium flux (F/F0 slope) [2]: active: 0.0248 | normalized thallium flux [3]: inconclusive: 0.0334 | thallium flux rate (normalised fluorescence) [4]: active: 0.0166

COc1cc(C)c(C)cc1S(=O)(=O)N1CCN(Cc2ccccc2)CC1
normalised thallium flux (F/F0 slope) [2]: inactive: 0.00537 | normalized thallium flux [3]: active: 0.0253 | thallium flux rate (normalised fluorescence) [4]: inactive: 0.00671 | raw Tl+ flux slope (below DMSO = inhibition, above = activation) [1]: inconclusive: 0.0166 | thallium flux slope [5]: inactive: 0.0106

O=C(Nc1nnc(-c2ccc(F)cc2)o1)c1cccc([N+](=O)[O-])c1
normalised thallium flux (F/F0 slope) [2]: active: 0.0329 | normalized thallium flux [3]: active: 0.0437 | thallium flux rate (normalised fluorescence) [4]: inconclusive: 0.0306 | raw Tl+ flux slope (below DMSO = inhibition, above = activation) [1]: active: 0.0722
